Test results as given in PubChem BioAssay AID1963576 (National Center for Advancing Translational Sciences (NCATS), 2024).
The campaign covered roughly 46,000 compounds. About 60 (0.1%) were called active. Roughly 3% stayed inconclusive and do not appear here. Calls follow the shape of the dose curve; as a rule, active = well fitted inhibition curve with a large enough effect; inconclusive = small, poorly fitted or top-dose-only effect; inactive = no such curve, though single readings can be large or run the other way. Some of the results follow.

Test: Primary qHTS assay for Inhibitors of ovarian cancer metastasis using an organotypic tumor microenvironment (TME) model. Also: nearly all actives have a fitted effect of over 65% in size.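 As to activity change, negative = inhibition: plate controls were DMSO wells for no effect and tomatine positive control wells for full effect.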
Conditions: SKOV3ip1-GFP adhesion/invasion on 3D omental model, fluorescence; series mostly up to 45.8 µM; activity change, negative = inhibition: at the top concentration
Method in brief: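 Adhesion/invasion was scored as fixed GFP-labeled SKOV3ip1 cell counts (488/509 nm), normalized to DMSO and tomatine controls. Cancer cells in serum-free medium, with four compound doses (0.36-46 umol/L), sat 2 hr at RT then 16 hr at 37 C on a 48 hr fibroblast/mesothelial/ECM culture.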

Activity change, negative = inhibition, inactive:
Cc1cc2n(n1)CCCN2C(=O)Nc1ccc(C)c(Cl)c1 -8.05%, Cc1ccc(C)c(N2CCN(S(=O)(=O)c3ccc(F)c(C(=O)Nc4ccc(Cl)cc4Cl)c3)CC2)c1 0.775%, COc1ccc(OC)c(CCNC(=O)c2cc3cccc4c3n2CCS4)c1 -0.619%, CCc1ccc(NC(=O)Cn2nnc(C(=O)NCCc3ccccc3)c2N)cc1 6.98%, O=C(NCc1cccc(F)c1)C1CCN(c2nn3cc(-c4ccc(F)cc4)nc3s2)CC1 -1.09%, CCc1ccccc1N(C)C(=O)c1cc2c(Cl)nc3ccc(C)cc3c2s1 -2.55%, Cc1ccc2[nH]c3c(=O)n(CC(=O)NCCCN4CCN(c5ccc(F)cc5)CC4)ncc3c2c1 8.44%, COCCCNC(=O)C1CCN(C(=O)c2ccc(-n3ccc4ccccc43)s2)CC1 -8.27%, Cc1cccc(C)c1NC(=O)c1nc(SC(C)C)ncc1Cl 4.39%, O=C(Nc1ccc(O)c(-c2nc3ccccc3o2)c1)c1ccc(-c2cccc(Cl)c2)o1 9.19%, CC1CCN(S(=O)(=O)c2ccc3c(c2)oc(=O)n3CC(=O)N2CCCCC2)CC1 0.836%, Cc1ccccc1CNCCSc1nnnn1C 32.5%, COc1cc2c(N3CCN(C(=O)Nc4ccc(OC(C)C)cc4)CC3)ncnc2cc1OCCCN1CCCCC1 -9.88%, COc1cccc(CNC(=O)CSc2nnc(C)c3c(C)n(-c4ccccc4)nc23)c1 0.974%, Cc1ccccc1Nc1c(-c2ccc(O)cc2)nc2c(C)cccn12 3.42%, Cc1cc(O)c2c(c1)C(=O)c1cccc(O)c1C2=O -4.52%, CCOc1ccc(NC(=O)c2c(NC(=O)c3ccncc3)sc3c2CCC(C(C)(C)C)C3)cc1 (stereo not given) 8.49%, Cc1cccc(OCC(=O)NCc2ccc3c(c2)CCN3C(=O)c2ccc(Cl)cc2)c1 0.0489%, O=C(c1cccn1-c1nnc(N2CCCC2)s1)N1CCN(c2ccc(F)cc2)CC1 -0.169%, COc1ccc(Cl)cc1S(=O)(=O)N1CCC(c2ccncc2)CC1 2.12%, COc1cccc(/C=C/c2nc3ccccc3c(=O)n2-c2ccc(C)c(C)c2)c1OC -11.2%, CC(=O)N1c2ccccc2CC1C(=O)N1CCN(c2cc(Cl)ccc2C)CC1 (stereo not given) 0.0265%, Cc1cccc(CNC(=O)CN2CC(C)Sc3ccccc32)c1 (stereo not given) -2.47%, CC(C(=O)O)c1ccc(-c2ccccc2)c(F)c1 (stereo not given) -4.58%, CC(=O)Nc1ccc(NC(=O)CN2C(=O)CCc3cc(S(=O)(=O)N4CCCCC4)ccc32)cc1 3.28%, O=C(Cn1cc(SCc2ccc(Cl)cc2)c2ccccc21)N1CCCC1 -6.78%, COc1cccc(NC2=CC(c3ccc(C(C)C)cc3)N(c3cccc(OC)c3)C2=O)c1 (stereo not given) 2.32%, CCc1ccccc1NC(=O)Nc1ccc2snnc2c1 8.72%, COc1cc(NC(=O)CCCc2nnc3n(C)c(=O)c4sccc4n23)cc(OC)c1OC 9.44%, Cc1cccc(CC(=O)N2CC(=O)Nc3ccc(F)cc3C2c2ccccc2)c1 (stereo not given) -5.86%, Cc1ccc(CNC(=O)CSc2c(C(C)C)cnc3c2c(=O)n(C)c(=O)n3C)cc1 -5.43%, O=C(CSc1nc(Nc2ccc(F)c(F)c2)c2ccccc2n1)c1ccc(Cl)cc1 -4.11%, CCOc1ccccc1Nc1nc2c(S(=O)(=O)c3ccc(C)cc3)nnn2c2ccsc12 -5.19%, COc1ccc(-c2cccc(NS(=O)(=O)c3ccc(NC(C)=O)cc3)c2)nn1 1.43%, CC(C)(C)OC(=O)N1CCC(c2c(C(=O)NCCN3CCOCC3)cnn2-c2ccc(F)cc2F)CC1 24.6%, CCOc1cc(/C=C(\C#N)C(=O)Nc2ccc(OC)cc2)ccc1OCc1cc(=O)n2nc(CC)sc2n1 -4.31%, CC(=O)Nc1ccc(NC(=O)c2ncoc2-c2ccco2)cc1 -15%, Cc1ccc2nc(CSc3nnc(NC(=O)c4ccc(C(C)(C)C)cc4)s3)cc(=O)n2c1 2.66%, CCOC(=O)c1c(-c2ccccc2)csc1NC(=O)c1nc(SCC)ncc1Cl -10.8%, Cc1ccc(-c2nc3scc(CCNS(=O)(=O)c4ccc(Oc5ccccc5)cc4)n3n2)cc1 -15.3%, COc1cccc(/C=C(\C#N)C(=O)Nc2ccc(NC(C)=O)cc2)c1OC -2.17%, CCc1nc2sc3c(N4CCCCC4)ncnc3c2c2c1CCCC2 1.41%, CCC(C)[C@H](N)c1nnc(SCc2ccc(Cl)c(Cl)c2)o1 (stereo not given in full) -7.13%, COc1ccc(Br)cc1CNC(=O)CSc1n[nH]c(-c2ccccc2)n1 -1.17%, COc1ccc(NC(=O)CCS(=O)(=O)c2ccc3c(c2)n(C)c(=O)c(=O)n3C)cc1Cl 2.59%, CCn1c(CN2CCCCC2)nc2cc(NC(=O)COc3ccc(C(C)(C)C)cc3)ccc21 -3.85%, COc1ccc2c(c1)NC(c1ccc(Cl)cc1)=NC(c1cccs1)=N2 -4.46%, Cc1ccc(S(=O)(=O)NCCSc2nnnn2-c2ccccc2)cc1 70.7%, Cc1oc2ccc(O)c(CN3CCC(C)CC3)c2c1C(=O)Nc1ccccc1 -4.63%, Cc1ccc(C)c(Cn2c(=O)n(Cc3ccccc3)c(=O)c3sc4ccccc4c32)c1 95.7%, CC(C)(C)c1ccc(-c2nnc(-c3ccccc3NC(=O)c3cccc(C(F)(F)F)c3)o2)cc1 11.6%, Cc1ccc(CCNC(=O)c2ccc3c(c2)N(Cc2cc(C)ccc2C)C(=O)c2ccccc2S3=O)cc1 (stereo not given) -18%, Cc1cc(C)cc(NS(=O)(=O)c2ccc(-c3cc(C)no3)cc2)c1 -8.02%, CCN(CC)c1ccc(NC(=O)CN2C(=O)c3cccnc3Oc3ccccc32)c(C)c1 3.8%, Cc1ccc(/C=C/c2onc(C)c2S(=O)(=O)N2CCC(C(=O)NCc3ccco3)CC2)cc1 22.5%, CCOC(=O)c1cccc(NS(=O)(=O)c2cc(Br)cc3c2N(C(=O)C2CC2)CC3)c1 12.6%, COc1ccc2c(c1)NC(c1ccc(F)cc1)=NC(c1ccc(F)cc1)=N2 -2.61%, COc1ccc(CNC(=O)CCS(=O)(=O)c2cc(Br)cc3c2N(C(=O)C2CC2)CC3)cc1 17.4%, COc1ccc(NC(=O)C2CCN(C3=NS(=O)(=O)C(c4ccc(C)c(C)c4)=C3C)CC2)cc1OC -6.37%, COC(=O)c1ccc(OCC2c3cc(OC)c(OC)cc3CCN2C(=O)c2cccc(C)c2)cc1 (stereo not given) -2.87%, O=C(Cn1nc(Cc2cccnc2)c2ccccc2c1=O)N1CCN(c2ccc(F)cc2)CC1 -6.34%, CCCSCCCNC(=O)C1CCCN(C(=O)c2cnn(-c3ccccc3)c2-n2cccc2)C1 (stereo not given) 9.02%, COc1ccc(Nc2ncnc3onc(C)c23)cc1Cl 8.24%, COc1ccc(OC)c(CNC(=O)CCS(=O)(=O)c2ccc3c(c2)oc(=O)n3C)c1 -0.347%, Cc1ccc(C)c(N2CCN(CCCNc3ncnc4onc(-c5ccc(Cl)cc5)c34)CC2)c1 -4.78%, CCN(C(=O)C(NS(=O)(=O)c1cccc2nsnc12)c1ccccc1)c1ccccc1 (stereo not given) -1.98%, CC1CCN(S(=O)(=O)c2cccc(C(=O)NC3CCS(=O)(=O)C3)c2)CC1 (stereo not given) 0.416%

outcome, inactive:
N#Cc1ccccc1Cn1c(=O)n(-c2ccccc2)c(=O)c2c3c(sc21)CCC3, CCOc1ccccc1NC(=O)Cn1c(=O)n(CCCCC(=O)NCCCOC)c(=O)c2ccccc21, CCC(C(=O)Nc1ccc(F)cc1F)n1nc(-c2ccccc2)c2c(c1=O)CCCC2 (stereo not given), COc1ccc(NC(=O)CCS(=O)(=O)c2cc3c4c(c2)CCN4C(=O)CC3)cc1OC, COc1ccc(-c2nnc(SCC(=O)Nc3ccc(C)c(Cl)c3)nc2-c2ccc(OC)c(OC)c2)cc1OC, Cc1nc(N)c(S(=O)(=O)c2ccccc2)c(Nc2ccc(Br)cc2)n1, COc1ccc(NC(=O)c2ccco2)cc1NC(=O)COc1cc(C)ccc1C(C)C, O=C(Nc1ccc(F)cc1)Nc1nnc(SCC(=O)N2CCCCC2)s1, Cc1c(C(=O)N(Cc2cccc(Cl)c2)Cc2ccco2)oc2ccccc12, COc1ccc(C)cc1NS(=O)(=O)c1cc(Br)cc2c1N(C(C)=O)C(C)C2 (stereo not given), O=C(CSCc1ccc(F)cc1)NCc1ccc(F)cc1, CCc1ccc(NS(=O)(=O)c2ccc3[nH]c4c(c3c2)CCCCCC4)cc1, Cc1cccc(-n2ncc(C(=O)NCc3ccc4c(c3)OCO4)c2C2CCN(C(=O)OC(C)(C)C)CC2)c1, CCc1ccc(NC(=O)CN2C(=O)CC(c3ccccc3)Sc3ccccc32)cc1 (stereo not given), CCCCN(C)CCNC(=O)c1cc(-c2ccc(Cl)s2)nc2ccccc12, CCc1cccc(C)c1NC(=O)CN1C(=O)c2cccc3cccc1c23, COc1ccc(NC(=O)CSc2cn(CCNC(=O)c3ccc(OC)cc3)c3ccccc23)cc1, Cc1ccc(CN2C(=O)C3(c4ccccc42)N(c2ccc(C)c(Cl)c2)C(=O)CS3(=O)=O)cc1 (stereo not given), O=C(CCC1N=C2c3ccccc3N=C(SCc3cccc(Cl)c3)N2C1=O)NCCc1ccccc1 (stereo not given), Cc1oc(-c2cccc(Br)c2)nc1Cn1c(SCc2cccc(F)c2)nc2cccnc21, CC1=C(C(=O)Nc2ccccc2)C(c2ccc(O)cc2)n2nc(-c3ccc(Cl)cc3)nc2N1 (stereo not given), CCCN1C(=O)C(Cc2nc3ccccc3c(=O)n2CC)c2cc(Br)ccc21 (stereo not given), COc1cccc(N2CCN(C(=O)CN3CCSc4ccc(S(=O)(=O)N(C)C)cc43)CC2)c1, CCCCN(Cc1ccccc1)S(=O)(=O)c1ccc2c(c1)CCN2C(=O)C1CCC1, COc1cccc(CNC(=O)Cn2c(=O)n3nc(-c4cccc(C)c4)nc3c3ccccc32)c1, Cc1ccc(NC(=O)[C@H](CSCc2ccccc2)N2Cc3ccccc3C2=O)cc1, COCCCNC(=O)CCCN1C(=O)CCn2nc(-c3cn(C)c4ccccc34)cc21, COc1ccc(-c2ccnc3c2c(=O)n(C)c(=O)n3C)cc1OC
